These results are taken from PubChem BioAssay AID1845196 (Molecular Pharmacology Branch, DTP, NCI, 2023).

A number of entries come with more than one value. The list is limited to them. There may be further records. Values given together repeat one measurement in other runs, samples, wells, individuals or studies. Counts like (3×) give the number of equal values in this list.

The subject of this experiment is 292921-168-R tumor spheroid viability. As to the kind of experiment: Anticancer human tumor 292921-168-R patient-derived pancreatic carcinoma cell line growth inhibition. Conditions: compound 30 pM; stronger effect = lower value; spheroids with HUVEC and MSC. An excerpt: Multicellular complex tumor spheroid response to DNA repair inhibitors in combination with DNA-damaging drugs
This study explores the anticancer activities of DNA-damaging drugs and inhibitors of DNA damage repair, both as single agents and in combinations. Complex tumor spheroids comprised of malignant cells, endothelial cells and mesenchymal stem cells served as an in vitro model for human solid tumors. This model system incorporates physiologically relevant features and patient-derived or established malignant cell lines with clinically relevant genetic alterations from many tumor types. Twenty-six patient-derived or established malignant cell lines were evaluated representing sarcoma, melanoma, small cell lung cancer (SCLC), non-small cell lung cancer (NSCLC), as well as bladder, ovarian and pancreatic cancers. The concentration ranges selected for each drug and investigational agent were based upon clinically achievable concentrations if the clinical Cmax of the agent was known.
Compounds. […] If the clinical Cmax for an agent had not been determined, the highest concentration tested was 10 microM. […]
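Also: spheroids exposed to compounds for 7 days.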

By viability, T/C is commonly meant the result in the treated group divided by that in the control group, in per cent. With `COc1cc2c(cc1O)CCNC21CSC2c3c(OC(C)=O)c(C)c4c(c3C(COC1=O)N1C(O)C3Cc5cc(C)c(OC)c(O)c5C(C21)N3C)OCO4` (stereo unspecified), the viability, T/C is 103, 101, 102 (2×), 99.6, 78.5, 104, 110, 107, 94.1%.
